Measured values published in PubChem BioAssay AID463173 (ICCB-Longwood Screening Facility, Harvard Medical School, 2010).
Screen size: about 52,000 compounds; about 1,700 (3.3%) were called active. Cut-off read from the data, not from the text of the source: active = survival mostly below about 52% (no sharp cut-off); inactive = mostly above about 56%. The list shows a part of the results.

What follows are molecules tested on Wild type (assay: S. aureus survival, RN4220 and DeltatarO strains – OD600, teichoic acid synthesis inhibitors, primary screen (AID 463173)). Conditions: S. aureus RN4220 wild type/DeltatarO growth, OD600, 18 h, hits give low values, screened at 18.75 µg/mL (by protocol).

Structure (SMILES) | survival
Cc1cnc(C(=O)Nc2ccc(S(=O)(=O)NC(C)C)cc2)cn1 | inactive: 110%
CCOc1ccc(S(=O)(=O)Nc2nc3ccccc3nc2Nc2ccc(OC)cc2)cc1 | inactive: 72%
COc1cc(CCC(=O)NCc2ccc3c(c2)CCN3C(=O)c2ccc(F)cc2)cc(OC)c1OC | inactive: 100%
CCCC(C)C(=O)Nc1ccc(OC)cc1 (stereo not drawn) | inactive: 120%
CCC(=O)Nc1ccc(C(=O)CSc2nnc(-c3ccc(O)cc3)n2CC2CCCO2)cc1 (stereo not drawn) | inactive: 103%
CC1CCN(C(=O)CN(C)S(=O)(=O)c2ccc3ccccc3c2)CC1 | inactive: 115%
CCOC(=O)c1c(SCC(=O)Nc2cc(Cl)cc(Cl)c2)nc(=O)[nH]c1C | inactive: 55%
Cc1ccc(-c2nnc(N(CC(C)C)C(=O)c3ccco3)s2)cc1 | inactive: 105%
COc1ccc(-c2nc3c(c(SCC(=O)N(C)c4ccccc4)n2)Cc2cc(C)ccc2O3)cc1 | inactive: 85%
CCCCNC(=O)C1CCC(CNS(=O)(=O)c2ccc(NC(C)=O)cc2)CC1 (stereo not drawn) | inactive: 70%
COc1ccc2ncc3c(-c4ccc(C)c(C)c4)nn(CC(=O)NC4CCCC4)c3c2c1 | inactive: 95%
CCN(CC)c1ccc(NC(=O)Cn2nc(C)n3cccc3c2=O)c(C)c1 | inactive: 88%
Cc1ccc2nc(NCc3ccc(F)cc3)c3nncn3c2c1 | inactive: 132%
Cc1nc(-c2ccc(S(=O)(=O)NCc3ccc(N(C)C)cc3)cc2)co1 | inactive: 73%
CCc1ccccc1NC(=O)CCc1c(C)nn(-c2ccc(N3CCOCC3)nn2)c1C | inactive: 140%
CCc1nn2c(=O)cc(COC(=O)c3ccccc3NC(=O)C3CCCCC3)nc2s1 | inactive: 71%
COc1ccc(-c2nc3n(c(=O)c2C#N)CCS3)cc1 | inactive: 98%
CCc1ccc(CNCc2c(C(=O)O)n(Cc3ccc(F)cc3Cl)c3cc(OC)ccc23)cc1 | inactive: 107%
COc1cc2ccccc2cc1C(=O)N1CCN(c2nc3ccc(F)cc3s2)CC1 | inactive: 72%
O=C(c1ccc(F)cc1)n1nc(-c2ccccc2)nc1NCc1ccc(F)cc1 | inactive: 19%

Structure (SMILES) | survival
CCc1ccc2[nH]c(=O)c(C(c3nnnn3Cc3ccccc3)N(Cc3ccccc3)Cc3ccco3)cc2c1 (stereo not drawn) | inactive: 113%
CCC(Sc1nc2ccccc2c2nc(-c3ccccc3)nn12)C(=O)Nc1cccc(OC)c1 (stereo not drawn) | inactive: 67%
CCSc1nnc(C2CCCN(CC(=O)N3CCN(c4ccccc4)CC3)C2)n1CC (stereo not drawn) | inactive: 101%
O=c1oc2ccccc2cc1-c1nnc(-c2cccc(Cl)c2)o1 | inactive: 107%
Cc1c(Cl)cccc1NC(=O)CCN1C(=O)c2ccccc2Sc2ncccc21 | inactive: 86%
COC(=O)c1c(NC(=O)CS(=O)(=O)c2ccc(C)cc2)sc2c1CCCC2 | active: -6%
Cc1ccc2oc(=O)c3cnn(CC(=O)N4CCN(c5ccccc5)CC4)c3c2c1 | inactive: 113%
CCC(C)NC(=O)CSc1nc2n[nH]c(C)c2c(=N)n1-c1ccc(C)c(Cl)c1 (stereo not drawn) | inactive: 80%
CCN(C(=O)Cn1nnc2sc(-c3ccccc3)cc2c1=O)c1cccc(C)c1 | inactive: 80%
Cc1cc(NC(=O)CCNS(=O)(=O)c2ccc3c(c2)oc(=O)n3C)ccc1Br | inactive: 72%
CCN(CC)C(=O)c1cc(-c2ccc(Cl)cc2)on1 | inactive: 51%
COc1ccc(NC(=O)CCn2c(=O)c3cccn3c3ccccc32)c(OC)c1 | inactive: 73%
CCC1CN(C(=O)Nc2cccc3c2CCCC3)c2ccccc2O1 (stereo not drawn) | inactive: 92%
O=C(Nc1nnc(S(=O)(=O)N2CCCc3ccccc32)s1)c1ccccc1 | inactive: 31%
O=C(NCCC(c1ccccc1)c1ccco1)c1cccs1 (stereo not drawn) | inactive: 113%
COC(=O)c1cnn2c(C)c(Cc3c(C)cc(C)cc3C)c(C)nc12 | inactive: 89%
CCN(CC)S(=O)(=O)c1ccc2c(c1)c(=O)c(C(=O)N1CCN(c3cccc(C)c3)C(C)C1)cn2C (stereo not drawn) | inactive: 98%
Cc1ccc(CNC(=O)CN(c2ccc(C)cc2)S(=O)(=O)c2c(C)nn(C)c2C)cc1 | inactive: 93%
Cc1ccc2c(=O)cc(C(=O)Nc3ccc(S(=O)(=O)N(C)Cc4ccccc4)cc3)oc2c1 | inactive: 112%
CCCCn1c(C(C)NC(=O)c2ccccc2)nc2ccccc21 (stereo not drawn) | inactive: 123%

Structure (SMILES) | survival
CCNc1ccc2c(Cl)cc(=O)oc2c1 | inactive: 112%
CC(=O)c1ccc(NC(=O)CN(C)S(=O)(=O)c2cccc3nsnc23)cc1 | inactive: 84%
COc1ccccc1-c1cc2nc(C)c(CCC(=O)NCc3cccc(Cl)c3)c(C)n2n1 | inactive: 112%
c1ccc(CN2CCC(NC3CCCC3)CC2)cc1 | inactive: 109%
O=C(COc1cccc(-n2cnnn2)c1)NC1CCCCC1 | inactive: 111%
CCOC(=O)C1CCCN(CCC(=O)Nc2cccc(C)c2)C1 (stereo not drawn) | inactive: 94%
COc1ccc(N2CC(NC(=O)C3CC3)CC2=O)cc1OC (stereo not drawn) | inactive: 102%
CC(C)CCn1c(=O)c2sccc2n2c(CCCC(=O)NCc3ccc(F)cc3)nnc12 | inactive: 90%
Cc1c(C(=O)Nc2ccc(F)cc2)sc2nc[nH]c(=O)c12 | inactive: 127%
CCc1ccccc1NC(=O)c1cc(S(=O)(=O)N2CCCc3ccccc32)ccc1F | inactive: 63%
Cc1cccc(N2CCN(C(=O)CCn3c(=O)c4cccn4c4cccnc43)CC2)c1C | inactive: 58%
CCOc1ccc(N(C)C(CNS(=O)(=O)c2ccccc2)c2ccccc2)cc1 (stereo not drawn) | inactive: 90%
O=C(COc1ccccc1)Nc1cccc(-c2cn3cccnc3n2)c1 | inactive: 81%
Fc1cccc(-n2ncc3c2ncn2nc(-c4ccccc4Cl)nc32)c1 | inactive: 86%
O=C(Cn1c(=O)c2cccn2c2ccc(F)cc21)N1CCN(c2ccc(F)cc2)CC1 | inactive: 90%
CCOc1ccccc1CNC(=O)c1cccn1-c1nnc(N2CCCCC2)s1 | inactive: 129%
Cc1ccn2c(=O)c(C(=O)NC(C)c3ccccc3)c(O)nc2c1 (stereo not drawn) | inactive: 81%
CCOc1ccc(C(=O)Nc2cc(-c3nc4ccccc4s3)ccc2OC)cc1 | inactive: 163%
